Laboratory results as given in the GPR68 mutational scans of Howard et al. (2025).
The least precise scores are not listed. Two further conditions of the source, in which the scores hardly spread, are not listed. Names with del lack the residues named; names with ins carry added residues between the positions named. For part of these data: How much ogerin was present is not stated here.

B1: GPR68, Q15743 (parent)
chain: MGNITADNSSMSCTIDHTIHQTLAPVVYVTVLVVGFPANCLSLYFGYLQIKARNELGVYLCNLTVADLFYICSLPFWLQYVLQHDNWSHGDLSCQVCGILLYENIYISVGFLCCISVDRYLAVAHPFRFHQFRTLKAAVGVSVVIWAKELLTSIYFLMHEEVIEDENQHRVCFEHYPIQAWQRAINYYRFLVGFLFPICLLLASYQGILRAVRRSHGTQKSRKDQIQRLVLSTVVIFLACFLPYHVLLLVRSVWEASCDFAKGVFNAYHFSLLLTSFNCVADPVLYCFVSETTHRDLARLRGACLAFLTCSRTGRAREAYPLGAPEASGKSGAQGEEPELLTKLHPAFQTPNSPGSGGFPTGRLA

What was measured:
[1] = variants of: B1; test: cAMP reporter score (Enrich2 score, wild type = 0); higher = more signal; HEK293T, FACS bins
[2] = variants of: B1; test: surface expression score (Enrich2 score, wild type = 0); higher = more signal; HEK293T, FACS bins

Row | Variant | cAMP reporter score ([1]; pH 5.5) | cAMP reporter score ([1]; pH 6) | cAMP reporter score ([1]; pH 6, modulator: ogerin) | cAMP reporter score ([1]; pH 6.5, modulator: ogerin) | surface expression score [2]
1 | T30_L32del | -2.05 | -0.819 | -1.78 | -1.05 | -2.53
2 | V34_G35insGSG | -0.919 | -1.64 | -1.8 | -1.18 | -2.48
3 | P37_N39del | -1.41 | -1.04 | -1.3 | -1.03 | -2.58
4 | L23S | -1.61 | -1.31 | -1.15 | -0.923 | -2.5
5 | L23G | -1.22 | -0.517 | -1.2 | -0.964 | -1.46
6 | L23W | 0.585 | -0.218 | 0.862 | -0.159 | 1.48
7 | L23R | -0.705 | -1.06 | – | -1.87 | -3.03
8 | L23F | -0.62 | 0.117 | -0.647 | -0.216 | -0.679
9 | L23P | -0.426 | 0.655 | -0.674 | -0.612 | -2.46
10 | L23Y | -0.624 | -0.771 | -1.18 | -1.09 | -1.15
11 | L23T | -1.41 | – | -1.55 | -2.25 | -1.86
12 | L23A | -0.776 | -0.684 | -1.12 | -1.02 | -1.96
13 | L23I | 0.165 | 0.193 | -0.633 | 0.184 | 0.384
14 | L23K | -1.77 | -1.61 | -1.94 | -1.49 | -2.61
15 | L23D | -1.77 | – | – | – | -2.92
16 | L23N | -2.81 | – | -0.661 | – | -3.45
17 | L23H | -1.54 | -1.66 | -1.53 | -1.65 | -1.94
18 | L23C | 0.275 | – | – | – | -3.2
19 | L23E | -1.49 | 0.209 | -1.99 | -1.06 | -3.48
20 | L23Q | -1.47 | -1.73 | -1.25 | -1.18 | -2.4
21 | L23M | -1.1 | -0.507 | -1.34 | -0.385 | -2.04

Row | Variant | cAMP reporter score ([1]; pH 5.5) | cAMP reporter score ([1]; pH 6) | cAMP reporter score ([1]; pH 6, modulator: ogerin) | cAMP reporter score ([1]; pH 6.5, modulator: ogerin) | surface expression score [2]
22 | A24H | -0.485 | – | -0.239 | 0.046 | -0.616
23 | A24N | -0.646 | 0.966 | -1.02 | 0.548 | -1.38
24 | A24K | -0.922 | -0.311 | -0.755 | -0.695 | -1.76
25 | A24G | 0.218 | -0.617 | -0.915 | -2.06 | 0.078
26 | A24M | -0.857 | -0.564 | -1.21 | -0.615 | 0.354
27 | A24D | -0.765 | -0.067 | -1.67 | -0.98 | -2.02
28 | A24C | -0.585 | -0.757 | -1.19 | -0.386 | -1.82
29 | A24Y | -0.932 | -0.857 | -1.33 | -0.915 | -0.267
30 | A24Q | -1.52 | -1.28 | -1.34 | -1.96 | -0.353
31 | A24T | -0.723 | -1.19 | -0.703 | -0.634 | -0.531
32 | A24L | -1.93 | -1.49 | -1.23 | -0.749 | 1.06
33 | A24I | -1.07 | -0.614 | -1.37 | -0.744 | 1.35
34 | A24P | -1.7 | -1.59 | -1.55 | -1.5 | -2.02
35 | A24F | 0.854 | 2.2 | 0.443 | 2.64 | 0.236
36 | A24S | 0.94 | 1.11 | 1.15 | 1.67 | -0.37
37 | A24V | -1.72 | -1.96 | -1.5 | -1.63 | -0.656
38 | A24E | -2.28 | – | – | – | –
39 | A24W | -0.593 | -0.39 | -1.21 | -1.19 | -0.176
40 | T22_A24del | -1.21 | 0.189 | -2.29 | -1.59 | -2
41 | L32_V33insG | -1.65 | -0.504 | -0.528 | -1.01 | -2.04
42 | V33del | -1.36 | -1.13 | -1.75 | -1.57 | -1.7

Row | Variant | cAMP reporter score ([1]; pH 5.5) | cAMP reporter score ([1]; pH 6) | cAMP reporter score ([1]; pH 6, modulator: ogerin) | cAMP reporter score ([1]; pH 6.5, modulator: ogerin) | surface expression score [2]
43 | T22W | 1.16 | 1.31 | 1.13 | 1.53 | 1.7
44 | T22S | -0.126 | -0.3 | -0.256 | -0.489 | -0.669
45 | T22D | -0.469 | – | -0.138 | -0.015 | -1.55
46 | T22P | -1.51 | -0.711 | -1.2 | -0.821 | -3.18
47 | T22R | 0.429 | -0.533 | -0.667 | -0.341 | 0.784
48 | T22M | 0.32 | -0.551 | 0.354 | -0.222 | 1.85
49 | T22Y | 0.552 | 0.983 | 0.887 | 1.13 | 1.28
50 | T22V | 0.074 | -0.646 | 0.206 | -0.107 | 1.17
51 | T22Q | -1.62 | -1.12 | -1.81 | -1.33 | -1.78
52 | T22H | -0.215 | -0.992 | -0.228 | -0.35 | -0.601
53 | T22F | 1.02 | 0.103 | 0.904 | 0.697 | 2.37
54 | T22L | 0.994 | -0.336 | 0.651 | -0.16 | 1.72
55 | T22I | 0.369 | -0.508 | 0.381 | -0.07 | 1.49
56 | T22N | -0.309 | 0.183 | -0.766 | -0.384 | -0.716
57 | T22K | 0.183 | -0.668 | -0.389 | -1.25 | 0.531
58 | T22E | -0.399 | -1.64 | -0.122 | – | -0.42
59 | T22G | -0.482 | -0.334 | -0.672 | -0.436 | -0.422
60 | L32A | -0.305 | -0.903 | -0.127 | -1.01 | -2.56
61 | L32P | -1.28 | -0.947 | -1.78 | -1.41 | -2.08
62 | L32M | 1.06 | 2.38 | 1.25 | 4.1 | –
63 | L32V | -0.477 | -0.097 | -1.23 | -0.892 | -2.02
